# Results from PubChem BioAssay AID1345082 (National Center for Advancing Translational Sciences (NCATS), 2018).
# Several values for one entry are separate records, joined by “and”; a condition that tells them apart may be missing. Equal entries are not always repeated. Out of some 94,000 compounds screened, about 4,000 (4.3%) were called active. The inconclusive results got no clear call from the source; some entries with a clear call stand among them for comparison. Calls follow the shape of the dose curve; as a rule, active = well fitted inhibition curve with a large enough effect; inconclusive = small, poorly fitted or top-dose-only effect; inactive = no such curve, though single readings can be large or run the other way. Potencies beside an inconclusive call are fits to weak or partial responses and may not hold up.
# Experiment: Cytotoxic Profiling in NIH 3T3 Cell Line of Diverse Libraries Using Quantitative High-Throughput Screening; also: nearly all actives have a fitted effect of over 55% in size
# Conditions: NIH 3T3 viability, CellTiter-Glo ATP luminescence, 48-72 h; series mostly up to 96.7 µM
# Summary of the method: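 First NIH 3T3 cells are plated at 400 cells/well; next compound is pinned in; then plates incubate 48 or 72 hr at 37 °C; finally CellTiter-Glo is added and luminescence read after 10 min.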
# Potency is read from the fitted curve at half-maximal effect; tags tell the direction and shape of the fitted curve.
row,Compound,Potency
1,O=C(CC1CCCN(c2cnn(CC3CC3)c(=O)c2)C1)Nc1ccccc1F (stereo unspecified),"inconclusive: 70.8 µM [inhibitor, partial curve, poor fit]"
2,CNc1nc(C(=O)NCc2ccc3[nH]c(-c4ccc(F)cc4)c(C)c3c2)cs1,active: 50.1 µM
3,CCOc1ccccc1NC(=O)Cn1ccn2nc(-c3ccccc3)c(CO)c2c1=O,"inconclusive: 7.94 µM [inhibitor, full curve]"
4,COc1ccc(OC)c(-c2ccc3ncn(-c4ccc(F)cc4F)c(=O)c3n2)c1,"inconclusive: 89.1 µM [inhibitor, partial curve, poor fit]"
5,CCOC(=O)N1CCC(COc2ccc3c(cnn3CCC(=O)O)c2)CC1,"inconclusive: 44.7 µM [inhibitor, full curve, poor fit]"
6,c1ccc(CCN2CCNc3cc(NCCN4CCOCC4)ncc3C2)cc1,"inconclusive: 56.2 µM [inhibitor, partial curve, poor fit]"
7,Cc1ccc(Nc2ccnc(N3CCC(NC(=O)Nc4ccccc4)CC3)n2)cc1,"inconclusive: 31.6 µM [inhibitor, partial curve]"
8,Cc1ccc(OC2(C(=O)NCC3COc4ccccc4O3)CCNCC2)cc1 (stereo unspecified),active: 31.6 µM
9,COc1ccccc1-c1ccc(CN2CCCCC2C(=O)NCC(F)F)cc1 (stereo unspecified),"active: 44.7 µM and inconclusive: 50.1 µM [inhibitor, partial curve, poor fit]"
10,Cn1cccc1C(=O)N1C[C@@H](CO)[C@H](c2ccncc2)C1,inactive
11,COc1cccc(-c2cc(C(=O)NCc3cccc(F)c3)c3cnn(C)c3n2)c1,"inconclusive: 14.1 µM [inhibitor, full curve]"
12,Cn1cccc1CN1CC(N2CCc3ccccc32)C1,inactive
13,CC[C@H]1CN(C(=O)Nc2cccc(C(F)(F)F)c2)CC[C@H]1CC(=O)NCc1ccco1,"inconclusive: 50.1 µM [inhibitor, partial curve, poor fit]"
14,CC(C)(C)C(=O)NC1CCN(c2ccnc3ccnn23)C1 (stereo unspecified),inactive
15,Oc1ccccc1-c1cc(-c2cccnc2)c2cncn2c1,"inconclusive: 70.8 µM [inhibitor, full curve, poor fit]"
16,O=C(Cc1cccc(F)c1)NCC(=O)N1CCCCCCNC(=O)CC1c1ccccc1 (stereo unspecified),inactive
17,Cc1sc2nc(CCN)nc(N(C)CCCCN3CCOCC3)c2c1C,"inconclusive: 50.1 µM [inhibitor, partial curve, poor fit]"
18,CCC1COCCN1Cc1cn(-c2ccccc2)nc1-c1ccc(OC)cc1F (stereo unspecified),"inconclusive: 50.1 µM [inhibitor, partial curve, poor fit]"
19,CCC(C)NC(=O)C(NC(=O)c1ccc2c(c1)OCO2)C1CCN(C(=O)c2ccccc2F)CC1 (stereo unspecified),inactive
20,CCn1cc2c3c(cccc31)CN(C(=O)COc1ccc(F)cc1)CC2,"inconclusive: 50.1 µM [inhibitor, partial curve, poor fit]"
21,Cc1cc(C)cc(C(=O)N2CCC(OC3CCN(C)CC3)CC2)c1,"inconclusive: 50.1 µM [inhibitor, single point]"

row,Compound,Potency
1,Cn1cnc2cc(-c3cccc4[nH]ncc34)cc(C(=O)NCc3cccnc3)c21,"inconclusive: 79.4 µM [inhibitor, partial curve, poor fit]"
2,CC(=O)N1CCn2c(nnc2C2CCCN2Cc2cn[nH]c2-c2cccs2)C1 (stereo unspecified),inactive
3,O=C(NCc1cccnc1)c1cnc2c(c1)N([S+](=O)([O-])c1cccnc1)CCC2,"inconclusive: 63.1 µM [inhibitor, partial curve, poor fit]"
4,CCCCn1c(=O)c(C(=O)N2CCN(C(=O)c3ccc(Cl)cc3)CC2)nc2cccnc21,inactive
5,CC1(COc2cccnc2)COc2ccc(C(=O)NC3CCC(O)CC3)cc2N1 (stereo unspecified),"inconclusive: 89.1 µM [inhibitor, partial curve, poor fit]"
6,CC(C)NC(=O)N1CCC2(CC1)CN(C(=O)CCCN)Cc1ccccc1O2,inactive
7,COc1ccc(C(=O)N[C@@H]2CCC[C@@H]2C(=O)N2CCN(c3ccccn3)CC2)cc1,"inconclusive: 50.1 µM [inhibitor, partial curve, poor fit]"
8,C[C@@H]1C(=O)O[C@H]2[C@H]1CC[C@@]1(C)Cc3sc(NC(=O)NC4CCCCC4)nc3[C@@H](C)[C@H]21,inactive
9,CN(C)C(=O)N1CCN(C(=O)c2nc3cccnc3n(CCc3ccccc3)c2=O)CC1,inactive
10,CCCCN(Cc1ccccc1)Cc1cn[nH]c1-c1ccc(OC)cc1OC,"inconclusive: 50.1 µM [inhibitor, partial curve, poor fit]"
11,CC(=O)NCCCC(=O)N1CNC(=O)C12CCN(C(=O)c1ccccc1)CC2,inactive
12,CN1CCCC2(C1)CN(C)c1ccc(C(=O)NCCc3ccccc3)cc12 (stereo unspecified),"inconclusive: 89.1 µM [inhibitor, partial curve, poor fit]"
13,COc1ccc(-c2cc(N3CCC(NC(=O)c4ccc(NC(C)=O)cc4)CC3)n[nH]2)cc1,"inconclusive: 50.1 µM [inhibitor, single point]"
14,O=C(NC1CCCCC1)O[C@@H]1CO[C@H]2[C@@H]1OC[C@@H]2Nc1nccc(-c2cccs2)n1,active: 112 µM
15,CC(=O)N1CCC(C(=O)NCC2CCN(c3cc(-c4ccc(Cl)cc4)[nH]n3)CC2)CC1,"inconclusive: 44.7 µM [inhibitor, partial curve, poor fit]"
16,CC(C)N1C[C@@H](C(=O)O)C[C@H](C(=O)Nc2ccc(F)cc2)C1,inactive
17,CCN(Cc1noc(C2CCC2)n1)C(=O)C(C)Oc1ccc2ccccc2c1 (stereo unspecified),inactive
18,O=C(NCc1ccc(Cl)cc1)c1ccn2nccc2c1,"inconclusive: 89.1 µM [inhibitor, partial curve, poor fit]"
19,COc1cccc(-c2cc3c(=O)n(CCNC(=O)C(C)Oc4ccccc4)ccn3n2)c1 (stereo unspecified),"inconclusive: 39.8 µM [inhibitor, partial curve, poor fit]"
20,N#Cc1cccc(CN[C@H]2CO[C@H]3[C@@H]2OC[C@H]3OC(=O)Nc2ccc(Oc3ccccc3)cc2)c1,"inconclusive: 50.1 µM [inhibitor, partial curve, poor fit]"
